Results are given in words; binding and its absence hold for the method and conditions named. Binding seen in cells or lysates may run through a third protein. Some results given as binding are weak or reduced against the parent protein; the word gives no strength. Sequences can lack the tags named with a protein. Blank lines part the entries; values can stand above or below the binder they belong to.
Columns and labels:
[1] = biological target: T1, FLAG-tagged ABHD5, Q8WTS1; test: co-IP; HEK293T cells transfected with PNPLA3, PNPLA3(I148M) or ATGL alone or together with FLAG-tagged PLIN1, 2, 3, 5 or ABHD5; precipitation by the FLAG tag, immunoblot; conditions: remark: other sources report otherwise
T1 chain: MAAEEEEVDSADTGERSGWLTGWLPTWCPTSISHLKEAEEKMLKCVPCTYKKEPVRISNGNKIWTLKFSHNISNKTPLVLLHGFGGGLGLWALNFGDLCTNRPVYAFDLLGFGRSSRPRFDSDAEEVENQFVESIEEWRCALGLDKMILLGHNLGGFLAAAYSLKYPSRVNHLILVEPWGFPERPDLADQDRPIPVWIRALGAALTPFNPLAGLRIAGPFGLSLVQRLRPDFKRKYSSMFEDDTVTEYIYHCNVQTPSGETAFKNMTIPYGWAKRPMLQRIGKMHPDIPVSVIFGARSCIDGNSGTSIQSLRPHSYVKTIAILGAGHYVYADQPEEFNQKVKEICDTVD

[2] = biological target: T2, FLAG-tagged perilipin 1 (human), O60240; test: as above; conditions: remark: other sources report otherwise
T2 chain: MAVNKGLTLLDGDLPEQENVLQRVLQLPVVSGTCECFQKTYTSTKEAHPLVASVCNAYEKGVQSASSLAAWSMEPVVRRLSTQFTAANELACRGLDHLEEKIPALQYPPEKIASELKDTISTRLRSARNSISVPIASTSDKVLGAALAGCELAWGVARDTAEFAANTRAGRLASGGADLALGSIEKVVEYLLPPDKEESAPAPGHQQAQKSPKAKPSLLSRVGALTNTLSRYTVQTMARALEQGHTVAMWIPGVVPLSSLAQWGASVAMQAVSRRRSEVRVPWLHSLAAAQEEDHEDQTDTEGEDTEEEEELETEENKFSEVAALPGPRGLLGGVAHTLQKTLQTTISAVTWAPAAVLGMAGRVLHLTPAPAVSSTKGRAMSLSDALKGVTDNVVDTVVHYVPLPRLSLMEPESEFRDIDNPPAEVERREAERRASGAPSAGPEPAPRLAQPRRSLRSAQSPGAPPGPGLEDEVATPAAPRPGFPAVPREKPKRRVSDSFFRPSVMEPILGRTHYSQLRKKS

[3] = biological target: T3, FLAG-tagged perilipin 2 (human), Q99541; test: as above; conditions: remark: other sources report otherwise
T3 chain: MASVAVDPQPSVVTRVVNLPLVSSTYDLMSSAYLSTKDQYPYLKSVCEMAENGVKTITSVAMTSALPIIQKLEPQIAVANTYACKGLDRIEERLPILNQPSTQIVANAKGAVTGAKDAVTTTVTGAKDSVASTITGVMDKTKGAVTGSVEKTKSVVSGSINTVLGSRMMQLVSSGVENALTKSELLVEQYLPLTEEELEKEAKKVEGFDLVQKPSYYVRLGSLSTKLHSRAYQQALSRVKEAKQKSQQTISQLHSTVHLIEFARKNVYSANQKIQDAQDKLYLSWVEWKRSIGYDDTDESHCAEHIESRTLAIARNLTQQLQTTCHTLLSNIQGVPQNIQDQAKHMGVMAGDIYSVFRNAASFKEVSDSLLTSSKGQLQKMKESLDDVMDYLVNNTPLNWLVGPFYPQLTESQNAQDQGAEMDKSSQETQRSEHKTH

[4] = biological target: T4, FLAG-tagged perilipin 3 (human) (UniProt O60664); test: as above
T4 sequence: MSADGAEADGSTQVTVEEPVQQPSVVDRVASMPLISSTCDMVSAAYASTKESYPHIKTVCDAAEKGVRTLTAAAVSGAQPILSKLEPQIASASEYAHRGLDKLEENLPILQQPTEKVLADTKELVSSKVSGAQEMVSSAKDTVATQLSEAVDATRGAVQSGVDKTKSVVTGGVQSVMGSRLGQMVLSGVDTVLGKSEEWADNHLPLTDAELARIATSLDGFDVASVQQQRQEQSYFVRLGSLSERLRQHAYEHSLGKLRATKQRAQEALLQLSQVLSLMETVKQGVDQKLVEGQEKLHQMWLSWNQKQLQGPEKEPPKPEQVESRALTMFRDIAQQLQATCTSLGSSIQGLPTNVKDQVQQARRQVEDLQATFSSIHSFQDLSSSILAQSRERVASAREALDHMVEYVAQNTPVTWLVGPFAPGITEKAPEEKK

[5] = biological target: T5, FLAG-tagged perilipin 2 (human) (UniProt Q99541); test: as above
T5 sequence: T3 chain

[6] = biological target: T6, FLAG-tagged perilipin 1 (human) (UniProt O60240); test: as above
T6 sequence: T2 chain

[7] = biological target: T4, FLAG-tagged perilipin 3 (human); test: co-IP; Huh7 cells transfected with PNPLA3 alone or together with FLAG-tagged PLIN1, 2, 3, 5 or ABHD5; precipitation by the FLAG tag, immunoblot of PNPLA3
[8] = biological target: T5, FLAG-tagged perilipin 2 (human); test: as above
[9] = biological target: T6, FLAG-tagged perilipin 1 (human); test: as above
[10] = biological target: T7, FLAG-tagged ATGL and HA-tagged ATGL (two differently tagged copies) (UniProt Q96AD5); test: co-IP; HEK293T cells transfected with FLAG-tagged ATGL alone and together with HA-tagged ATGL in the presence or absence of PNPLA3; precipitation by the FLAG tag, immunoblot of HA, FLAG and PNPLA3
T7 sequence: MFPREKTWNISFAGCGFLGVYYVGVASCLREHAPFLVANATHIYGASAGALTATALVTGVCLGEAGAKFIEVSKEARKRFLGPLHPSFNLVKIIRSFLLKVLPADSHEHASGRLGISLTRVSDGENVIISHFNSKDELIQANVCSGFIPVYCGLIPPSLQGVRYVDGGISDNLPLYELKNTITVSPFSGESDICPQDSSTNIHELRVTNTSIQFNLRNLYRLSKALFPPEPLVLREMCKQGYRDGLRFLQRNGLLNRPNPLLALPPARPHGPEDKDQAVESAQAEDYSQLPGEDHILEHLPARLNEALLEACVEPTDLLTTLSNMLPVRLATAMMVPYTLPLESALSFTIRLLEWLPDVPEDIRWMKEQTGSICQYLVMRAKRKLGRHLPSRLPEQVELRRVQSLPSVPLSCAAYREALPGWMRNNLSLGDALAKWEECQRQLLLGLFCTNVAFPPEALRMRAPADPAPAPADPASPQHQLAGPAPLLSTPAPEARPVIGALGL

[11] = biological target: T1, FLAG-tagged ABHD5, Q8WTS1; test: co-IP; Huh7 cells transfected with PNPLA3 alone or together with FLAG-tagged PLIN1, 2, 3, 5 or ABHD5; precipitation by the FLAG tag, immunoblot of PNPLA3; conditions: remark: other sources report otherwise

binding [1]: binds | binding [2]: no binding | binding [3]: no binding
B1: adipose triglyceride lipase (ATGL), no tag named, Q96AD5 1-504 (enzyme)
chain: T7 sequence

binding [4]: no binding | binding [5]: no binding | binding [6]: no binding | binding [7]: no binding | binding [8]: no binding | binding [9]: no binding | binding [10]: binds
B2: PNPLA3 (patatin-like phospholipase domain containing 3), wild type, no tag named (enzyme, UniProt Q9NST1 1-481)
chain: MYDAERGWSLSFAGCGFLGFYHVGATRCLSEHAPHLLRDARMLFGASAGALHCVGVLSGIPLEQTLQVLSDLVRKARSRNIGIFHPSFNLSKFLRQGLCKCLPANVHQLISGKIGISLTRVSDGENVLVSDFRSKDEVVDALVCSCFIPFYSGLIPPSFRGVRYVDGGVSDNVPFIDAKTTITVSPFYGEYDICPKVKSTNFLHVDITKLSLRLCTGNLYLLSRAFVPPDLKVLGEICLRGYLDAFRFLEEKGICNRPQPGLKSSSEGMDPEVAMPSWANMSLDSSPESAALAVRLEGDELLDHLRLSILPWDESILDTLSPRLATALSEEMKDKGGYMSKICNLLPIRIMSYVMLPCTLPVESAIAIVQRLVTWLPDMPDDVLWLQWVTSQVFTRVLMCLLPASRSQMPVSSQQASPCTPEQDWPCWTPCSPKGCPAETKAEATPRSILRSSLNFFLGNKVPAGAEGLSTFPSFSLEKSL

binding [1]: no binding | binding [11]: no binding
B3: PNPLA3 (patatin-like phospholipase domain containing 3), wild type, no tag named, Q9NST1 1-481 (enzyme)
chain: B2 chain

— article PMC9818421
